Test results: paper PMC4336329 (PLoS ONE, 2015)
The campaign covered roughly 310,000 compounds. About 14,000 (4.5%) showed an effect of 50% or more. Effects have a minus sign here. Some of the results follow.

Molecular target: human ether-à-go-go-related gene (hERG) potassium channel (human, UniProt Q12809)
Assay: primary screen, population patch clamp on CHO cells stably expressing hERG
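Also: peak tail current of the secondary pulse compared with the same well before compound.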

human ether-à-go-go-related gene (hERG) potassium channel, sequence (Q12809 whole entry, looked up): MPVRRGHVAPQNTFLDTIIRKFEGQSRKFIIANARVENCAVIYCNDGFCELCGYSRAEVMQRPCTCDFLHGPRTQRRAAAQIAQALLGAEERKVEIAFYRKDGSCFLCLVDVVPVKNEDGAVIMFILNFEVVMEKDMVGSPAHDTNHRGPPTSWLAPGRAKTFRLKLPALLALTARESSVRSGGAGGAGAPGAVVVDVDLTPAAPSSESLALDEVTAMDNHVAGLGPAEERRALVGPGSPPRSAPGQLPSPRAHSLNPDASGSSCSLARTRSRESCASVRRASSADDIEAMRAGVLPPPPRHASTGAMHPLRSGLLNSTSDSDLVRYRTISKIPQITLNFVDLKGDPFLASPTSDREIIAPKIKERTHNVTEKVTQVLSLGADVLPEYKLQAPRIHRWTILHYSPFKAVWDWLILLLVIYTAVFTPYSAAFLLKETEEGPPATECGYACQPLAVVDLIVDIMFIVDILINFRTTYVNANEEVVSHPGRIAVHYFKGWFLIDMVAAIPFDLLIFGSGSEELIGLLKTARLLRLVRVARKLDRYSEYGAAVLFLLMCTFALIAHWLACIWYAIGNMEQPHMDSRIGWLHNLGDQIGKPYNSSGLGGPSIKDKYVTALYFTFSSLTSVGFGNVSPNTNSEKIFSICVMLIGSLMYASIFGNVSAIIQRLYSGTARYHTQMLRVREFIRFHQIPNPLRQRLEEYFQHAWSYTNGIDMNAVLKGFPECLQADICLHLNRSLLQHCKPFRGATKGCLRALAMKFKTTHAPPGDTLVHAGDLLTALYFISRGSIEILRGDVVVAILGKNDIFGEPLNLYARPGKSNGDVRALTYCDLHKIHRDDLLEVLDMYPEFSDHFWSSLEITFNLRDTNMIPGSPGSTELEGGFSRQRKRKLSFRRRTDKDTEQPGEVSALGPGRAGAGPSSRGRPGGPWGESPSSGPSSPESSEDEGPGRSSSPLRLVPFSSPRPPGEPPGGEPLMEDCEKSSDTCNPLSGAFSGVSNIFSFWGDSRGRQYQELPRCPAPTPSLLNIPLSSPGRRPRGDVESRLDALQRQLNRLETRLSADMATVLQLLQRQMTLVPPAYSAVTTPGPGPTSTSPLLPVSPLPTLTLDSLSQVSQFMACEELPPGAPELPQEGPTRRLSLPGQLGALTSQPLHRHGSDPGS

Row | SMILES | hERG current change (%, negative = inhibition) at 10uM [%]
1 | COC(=O)c1ccc(NC(=O)c2ccc3nsnc3c2)cc1 | 4.15
2 | CCOC(=O)C1C(=O)OC2(CCCC2)C1C(=O)OCC (stereo not shown) | -7.15
3 | O=C(C1CCCN(S(=O)(=O)c2ccccc2[N+](=O)[O-])C1)N1CCCC1 (stereo not shown) | -8.37
4 | Cc1ccc(C2CC2c2n[nH]c(=S)n2-c2cccc(C)c2)cc1 (stereo not shown) | 16.6
5 | CCOC(=O)c1ccc(-n2c(CCC(=O)O)ccc2-c2ccccc2)cc1 | 1.88
6 | Cc1cccn2cc(-c3ccc(S(=O)(=O)N4CCCCC4)cc3)nc12 | -1.13
7 | Cc1ccc(S(=O)(=O)N(C(=O)c2ccncc2)c2ccc(OC(=O)c3ccncc3)cc2)c(C)c1 | -0.914
8 | CC1(C)Cc2c(sc3nc(=S)[nH]c(N)c23)CO1 | 13.6
9 | CCN(CC)CCN1C(=O)c2ccccc2NC1c1ccccc1F (stereo not shown) | -46.3
10 | CCOC(=O)Cc1csc(NC(=O)Cc2ccccc2[N+](=O)[O-])n1 | 7.19
11 | C=CCOC(=O)CN1C(=O)c2ccccc2C1=O | 2.24
12 | CCOc1ncccc1C(=O)N1CCN(S(=O)(=O)c2ccc3ccccc3c2)CC1 | -19.1
13 | CCOc1cc(/C=N/NC(=O)CSc2nncn2C)ccc1OCC(N)=O | 12
14 | Cc1ccc(OCC(=O)NNC(=O)c2ccc(-n3cncn3)c([N+](=O)[O-])c2)cc1 | -2.51
15 | O=C(O)CCC(=O)Nc1ccccc1N1CCOCC1 | 0.751
16 | CC(=O)N(C)c1cccc(-c2ccc3nnc(C)n3n2)c1 | 12.7
17 | O=C(Nc1ccc(Cl)cn1)Nc1ccccc1F | 6.46
18 | Nc1c(-c2ccccc2)nnn1Cc1ccccc1 | 5.68
19 | CCCCn1c(N)c(N(CCOC)C(=O)c2cc(S(=O)(=O)N3CCOCC3)ccc2F)c(=O)[nH]c1=O | 16.1
20 | COc1cccc(-n2c(C)nn(C)c2=O)c1 | 5.32
21 | CCCCCNC(=O)c1ccc2c(c1)ncn2-c1ccc(OC)cc1 | -64
22 | COc1ccc(/C=C(\C#N)C(=O)NCc2cccnc2)cc1OC | -0.0191

Row | SMILES | hERG current change (%, negative = inhibition) at 10uM [%]
23 | Cc1cc(C)n(-c2nnc(SCC(=O)NC3CCCC3)c3ccccc23)n1 | -21.9
24 | Cc1ccc(N(CC(=O)NCc2ccc(Cl)cc2)S(C)(=O)=O)cc1 | 10.4
25 | O=C(c1ccc(N2CCCC2=O)cc1)N1CCN(c2ccccc2F)CC1 | 10.6
26 | CCc1nnc(NC(=O)C2CSC3(C)CCC(=O)N23)s1 (stereo not shown) | 2.35
27 | NC(=O)[C@H]1CC2(CC(c3cccc(NC(=O)[C@H]4CCC(=O)N4)c3)=NO2)CN1C(=O)c1ccccc1 (stereo partly shown) | 7.14
28 | COc1ccc(/C=N/c2c(-c3ccco3)nc3ccccn23)cc1OC | -25.3
29 | O=C(O)/C=C/C(=O)NNc1ccc([N+](=O)[O-])cc1 | -0.0879
30 | COc1ccc(NC(=O)CN(C)C(=O)CSc2nc3ccccc3s2)cc1 | -4
31 | O=C(NCc1ccccc1Cl)C1CCC(CNc2c(N3CCOCC3)c(=O)c2=O)CC1 (stereo not shown) | 34.2
32 | CCOC(=O)Cc1cc(-c2ccccc2)nc2ccc3ccccc3c12 | 23
33 | CN(C(=O)C(C)(C)C)c1ccc(OCC(=O)N2CCc3ccccc3C2)cc1 | -4.12
34 | CC(=O)Nc1cccc(C(=O)Oc2cccc(C)c2)c1O | -6.85
35 | CC1(C)NC(=O)N(CC(O)CN2CCCCC2)C1=O (stereo not shown) | 24
36 | C=CCn1c(SCC(=O)N(CC)C2CCS(=O)(=O)C2)nnc1-c1ccccc1 (stereo not shown) | -2.7
37 | CN(C/C=C/c1ccccc1[N+](=O)[O-])Cc1ccccc1 | -46
38 | COC(=O)c1ccc(COc2cccc3c2OC(C)(C)C3)cc1 | 28.7
39 | O=C(NCCCn1ccnc1)c1noc2c1CCCC2 | -41.8
40 | CCNc1nc(NCC)n2c(SC(C(=O)Nc3cc(C)ccc3OC)c3ccccc3)nnc2n1 (stereo not shown) | -41.4
41 | O=C(O)COc1ccccc1/C=N/NC(=O)COc1ccc(-c2ccccc2)cc1 | -1.47
42 | Cc1cc(=O)[nH]c(N/N=C/c2cc(C)n(CC(F)(F)F)c2C)n1 | 3.96
43 | COc1cc2c(cc1OC)C(COc1ccc([N+](=O)[O-])cc1)N(C(C)=O)CC2 (stereo not shown) | -77.4
44 | CCN(CC)c1ccc(NC(=O)CNCc2ccccc2Cl)c(C)c1.O=C(O)C(=O)O | -12.9

Row | SMILES | hERG current change (%, negative = inhibition) at 10uM [%]
45 | NC(=O)C1CCN(c2ccc(S(=O)(=O)N3CCC(Cc4ccccc4)CC3)cn2)CC1 | 17
46 | Cc1c(CC(=O)NCCC(=O)O)c(=O)oc2cc3oc4c(c3cc12)CCCC4 | 22.8
47 | COc1cccc(NC(=O)CN(C)C(=O)c2ccc(S(=O)(=O)Nc3ccccc3C)cc2)c1 | -16.2
48 | Cc1cccc(N2C(=O)NC(=O)/C(=C\c3cccn3-c3ccc(Cl)cc3)C2=O)c1 | 6.15
49 | CCOC(=O)/C(C#N)=C\c1cc(OC)c(OC)cc1[N+](=O)[O-] | 16.6
50 | CCN1CCN(C(=O)c2cnn3c(C(F)F)cc(-c4ccc(C)cc4)nc23)CC1 | -30.5
51 | CCSc1nc2sc3c(c2c(=O)n1CC)CCC3 | 13
52 | O=C(O)c1ccc2c(c1)C(=O)N(Cc1ccccc1)C2=O | -11.5
53 | CCOc1ccccc1N/C(=C(/C(Cl)=C(Cl)Cl)[N+](=O)[O-])n1cncn1 | -11.7
54 | CS(=O)(=O)c1ccc(N2CCN(c3ccccn3)CC2)c([N+](=O)[O-])c1 | -55
55 | O=C(NCCN1CCOCC1)C1CCN(S(=O)(=O)N2CCCC2)CC1 | 16.2
56 | CCC(C)NC(=O)c1csc2c1CCCCC2 (stereo not shown) | 18.1
57 | O=C(Cc1cccc2ccccc12)NCCc1ccccc1 | 5.98
58 | Clc1ccccc1OCCCCn1ccnc1 | -2.93
59 | O=C(COc1ccc(Cl)cc1Cl)NNC(=S)NC(=O)c1ccco1 | 13.1
60 | COc1ccc2nc(-c3ccco3)c(-c3ccco3)nc2c1 | 1.82
61 | CC1CCC2(CC1)SCC(=O)N2c1ccc(F)cc1 (stereo not shown) | -0.055
62 | O=C(NN=C1CCCC1)C1COc2ccccc2O1 (stereo not shown) | 10.6
63 | CCSC1=NCCN1C(=O)c1c(-c2ccccc2Cl)noc1C | -20.6
64 | O=C(c1ccc(Oc2cc(Cl)cc(Cl)c2)o1)N1CCCCC1 | -7.03
65 | Cc1nn(-c2ccccc2)c(C)c1C(=O)OCC(N)=O | 14.7
66 | Cc1ccc(C(=O)ON=C2CCN(c3ccc([N+](=O)[O-])cc3)CC2)cc1 | -60.9

Row | SMILES | hERG current change (%, negative = inhibition) at 10uM [%]
67 | CCCCN(CC)CCNC(=O)c1cn(C)c(=O)c2c1c1ccccc1n2C | -24.6
68 | COc1ccc(NC(=O)c2c(NC(=O)CNCc3ccco3)sc3c2CCC3)c(OC)c1 | 2
69 | CCC(C)NC(=O)c1ccccc1NC(=O)/C(=C/c1ccc(OC)cc1)c1ccccc1 (stereo not shown) | 3.99
70 | CS(=O)c1ccccc1COC(=O)Nc1cccc(Cl)c1 (stereo not shown) | -27.2
71 | CCN(Cc1ccccc1)C(=O)CCc1nnc(CCCc2ccccc2)o1 | 21.1
72 | CCc1ccc(NC(=O)[C@H](Cc2c[nH]c3ccccc23)NC(=O)[C@@H]2Cc3ccccc3CN2)cc1 | -11.3
73 | CC(C)(C)c1ccc(S(=O)(=O)Nc2ccc(Cc3ccncc3)cc2)cc1 | -8.11
74 | CCCOc1ccc(Cn2c(O)cc(=O)[nH]c2=O)cc1 | 14.1
75 | COc1cc(NS(=O)(=O)c2ccc(NC(=S)NC(=O)C(C)(C)C)cc2)nc(OC)n1 | -4.46
76 | COC(=O)c1cn(-c2ccccc2)nc1-c1ccc(OC)cc1 | 15.1
77 | Cc1cccc(C)c1NC(=O)CNC(=O)c1ccncc1 | 8.24
78 | CN(C)CCN(C(=O)c1ccccc1Cl)c1nc2c(Cl)cccc2s1.Cl | -34.1
79 | CCOC(=O)N1CCC(Nc2ccc3nnc(-c4ccccc4)n3n2)CC1 | -82
80 | CCOc1ccc(N2C(=O)NC(Cc3c[nH]c4ccccc34)C2=O)cc1 (stereo not shown) | -4.47
81 | Cc1ccnc(NC(=O)c2ccc(N3C(=O)CCC3=O)cc2)c1 | 5.53
82 | O=C(CSc1nc2cc(S(=O)(=O)N3CCOCC3)ccc2o1)NC1CCCc2ccccc21 (stereo not shown) | -4.26
83 | COc1ccc(CNC(=O)CS(=O)CC(=O)O)cc1OC (stereo not shown) | 12.9
84 | CC(=O)Oc1ccc(N2C(=O)C3C(C2=O)C2C=CC3C23CC3)cc1[N+](=O)[O-] (stereo not shown) | 17.5
85 | CCc1cccc(NS(=O)(=O)c2ccc3c(c2)CCC(=O)N3)c1 | -11.1
86 | CCOc1cc(C(=O)OC(C)C(=O)Nc2ccc(S(N)(=O)=O)cc2)ccc1OCC(=O)N1CCOCC1 (stereo not shown) | -5.65
87 | O=c1[nH]cnc2sc(-c3ccccc3)cc12 | -1.05
88 | Cc1ccc(-c2c(NC(=O)C(C)C)n(C)c3ccccc3c2=O)cc1 | 7.05
